The structures appear in SMILES notation. In all, about 52,000 compounds went through this assay and about 1,700 (3.3%) were called active. Cut-off read from the data, not from the text of the source: active = survival mostly below about 52% (no sharp cut-off); inactive = mostly above about 56%. The list shows a part of the results.

In this assay the test system is Wild type. In words: growth inhibition of S. aureus wild type versus tarO mutant, primary screen, teichoic acid synthesis inhibitors, RN4220, OD600 (AID 463173). As to conditions: S. aureus RN4220 wild type/DeltatarO growth, OD600, 18 h, stronger effect = lower value, screened at 18.75 µg/mL (by protocol).
Turning to `COC(=O)c1sc(N2C(=O)c3oc4ccc(C)cc4c(=O)c3C2c2ccc(OC)cc2)nc1C` (stereo not drawn), the survival is inactive: 134%.

In the case of `Cc1cc(Cl)ccc1NC(=O)CSc1nc2c(c(=O)[nH]1)CCC2`, the survival was inactive: 80%. For `O=C(CCSc1nnc(-c2ccco2)o1)Nc1ccccc1` the value was inactive: 97%. For the molecule `CCOc1ccc(CCNC(=O)Cn2nc(CC)n3c(cc4sccc43)c2=O)cc1`, the survival is inactive: 123%.

For the molecule `Fc1ccc(Cn2c(-c3cccc(Br)c3)nc3ccccc32)cc1`, the survival is inactive: 120%.

In the case of `Cc1nn2c(C)c(C(=O)NCC(C)c3ccccc3)cnc2c1-c1ccccc1` (stereo not drawn), the survival is inactive: 75%. Under `O=C(Nc1c2c(nn1-c1ccc(Cl)cc1)CS(=O)(=O)C2)c1ccccc1F` stands inactive: 73%; under `O=C(NCCc1nc2ccccc2n1CCCOc1ccc(Cl)cc1)C1CCCCC1`, active: 10%; under `COc1ccc(C(=O)Nc2noc3ccccc23)cc1`, inactive: 73%.

In the case of `CCN(CC)c1ccc2cc(C(=O)Nc3ccc(NC(C)=O)cc3)c(=O)oc2c1`, the survival is inactive: 100%. Under `Cc1cccc(NC(=O)CSc2nccn2-c2cccc(Cl)c2)c1C` stands inactive: 58%; under `CCC(C(=O)NCc1ccccc1Cl)n1nc(C)c2sc3ccccc3c2c1=O` (stereo not drawn), inactive: 104%. `Cc1ccc(NC(=O)c2sc(-n3nc(C)c(Cc4ccc5c(c4)OCO5)c3C)nc2C)cc1C`: the survival was inactive: 124%. Under `C=CCC(NCc1ccco1)c1ccccc1` (stereo not drawn) stands inactive: 106%; under `CCOc1cc(C2c3c(-c4ccccc4O)n[nH]c3C(=O)N2Cc2cccnc2)ccc1O` (stereo not drawn), inactive: 89%. `Cc1cc(C)cc(NC(=O)CSCc2cc(=O)c3ccc(C)c(C)c3[nH]2)c1`: the survival is inactive: 74%. On to `CNS(=O)(=O)c1cn(CC(=O)N2CCN(c3cc(C)ccc3C)CC2)cc1S(=O)(=O)NC`, for which the survival is inactive: 83%. Take `CS(=O)(=O)N1CCN(S(=O)(=O)c2ccccc2)CC1`: the survival was inactive: 100%. Under `O=C(CCCn1c(=O)c2sccc2n(Cc2cccc(Cl)c2)c1=O)NCc1ccc2c(c1)OCO2` stands inactive: 82%. Consider `CCOC(=O)CN1C(=O)c2cccnc2Oc2ccccc21`, for which the survival was inactive: 69%. For `O=c1cc(-c2ccccc2)n2c(SCc3cccc([N+](=O)[O-])c3)nnc2[nH]1` the value was inactive: 97%; for `COc1ccc(NC(=O)CSc2nc(-c3ccco3)nc3cc(=O)[nH]n23)cc1`, inactive: 71%.

As for `NC(=O)C1CCN(C(=O)Cn2c(-c3cccs3)cc3ccccc32)CC1`, the survival is inactive: 102%. For `CCOc1ccc(NC(=O)CN2CCN(CC(=O)Nc3ccccc3OCC)CC2)cc1` the value was inactive: 81%.

Regarding `Cc1cc(C(=O)Nc2c(C)nn(Cc3ccc(F)cc3)c2C)no1`, the survival is inactive: 135%. Regarding `CCOc1cc(C(=O)N2CCC(c3ccncc3)CC2)cc(OCC)c1OCC`, the survival was active: -1%. For `COc1ccc(Cl)cc1NC(=O)CSc1nc(-c2ccco2)cc(C(F)(F)F)n1` the value was inactive: 33%.

As for `Cc1ccc(NC2OC(=O)c3ccccc32)cc1` (stereo not drawn), the survival was inactive: 76%.

Take `CCc1ccccc1Nc1nc2ccccc2n2cnnc12`: the survival was inactive: 147%. For the molecule `COc1ccc(CCNC(=O)CCn2c(=O)c3cccn3c3cccnc32)cc1OC`, the survival is inactive: 93%. On to `CCCCN(c1ccccc1)S(=O)(=O)c1ccc2c(c1)CC(C)N2C(=O)C1CC1` (stereo not drawn), for which the survival is inactive: 75%. Under `COc1ccccc1-n1nc(-c2ccccc2)c2cnc3cc(C(F)(F)F)ccc3c21` stands inactive: 83%; under `CCOC(=O)c1ccc(NC(=O)COC(=O)c2cn(CC)c3nc(C)ccc3c2=O)cc1`, inactive: 80%; under `COc1ccc(-c2oc3ncn4nc(-c5ccccc5C)nc4c3c2-c2ccc(OC)cc2)cc1`, inactive: 118%. `Cc1cccc(C)c1OC(=O)CSc1nnc(-c2cccs2)o1`: the survival was inactive: 83%. For the molecule `O=C(CSc1nc(C2CC2)nc2ccccc12)N1CCCCC1`, the survival was inactive: 107%. Under `N#CCNS(=O)(=O)c1ccccc1` stands inactive: 110%; under `COc1ccc(CNC(=O)CCc2nnc3n(CC(C)C)c(=O)c4ccccc4n23)cc1`, inactive: 84%. With `O=S(=O)(Nc1ccc(-c2ccc(N3CCCC3)nn2)cc1)c1cccc(C(F)(F)F)c1`, the survival is inactive: 123%.

In the case of `Cc1ccc(C)c(CN2C(=O)c3ccccc3S(=O)(=O)c3ccc(C(=O)N4CCN(c5ccccc5F)CC4)cc32)c1`, the survival is inactive: 75%. Under `CC1CCCCN1S(=O)(=O)c1ccc(NC(=O)CSc2nc3ccccc3o2)cc1` (stereo not drawn) stands inactive: 123%; under `CCn1ccc2cc(S(=O)(=O)N3CCCN(C(=O)NCCOC)CC3)ccc21`, inactive: 88%. For `COc1ccc(C)cc1NS(=O)(=O)c1ccc2[nH]c(=O)c(=O)[nH]c2c1` the value was inactive: 95%; for `CCCCNc1c2c3c(cccc3[nH]c1=O)C(=O)c1ccccc1-2`, inactive: 115%.

Regarding `CCS(=O)(=O)N1CCc2cc(C(=O)Nc3cc(C(F)(F)F)ccc3Cl)ccc21`, the survival is inactive: 89%.

As for `COc1cccc(NC(=O)Cn2c(=O)n(CCCCC(=O)NCCc3ccccc3)c(=O)c3ccccc32)c1`, the survival was inactive: 97%. As for `CC1CCN(C(=O)C2CCN(Cc3cccc(O)c3)CC2)CC1`, the survival is inactive: 111%. For `CCOC(=O)C1=C(CN2CCN(c3cc(C)ccc3C)CC2)NC(=O)NC1c1ccc(Cl)cc1` (stereo not drawn), the survival was inactive: 93%. For `Cc1cccc(NC(=O)c2ccc(-c3nc(CSc4ccccc4)c(C)o3)cc2)c1C`, the survival is inactive: 67%.

For `Cc1nc2sc(C(N)=O)c(N)c2c(-c2ccc(Br)cc2)c1C(=O)Nc1ccc(Cl)cc1`, the survival was active: -7%. As for `O=C(CSc1nnc2ccc3ccccc3n12)c1ccc(F)cc1`, the survival is inactive: 63%.

As for `COc1ccccc1CNC(=O)c1cnc2sc(N3CCCCCC3)nn2c1=O`, the survival is inactive: 70%.

Regarding `O=c1c2ccccc2n(Cc2ccccc2F)c(=O)n1-c1cccc(F)c1`, the survival is inactive: 75%. For `Cc1ccc(C(=O)Nc2onc3c2CCCC3)cc1` the value was inactive: 80%.

As to `Cc1ccccc1C(=O)Nc1ccc2c(c1)CCCN2C(=O)c1cccs1`, the survival was inactive: 77%. For the molecule `CSc1ccc(CNC(=O)CCn2c(=O)c3cccn3c3ccc(F)cc32)cc1`, the survival was inactive: 75%.

`COC(=O)c1cc2occc2n1Cc1cccc(C)c1`: the survival is active: -1%. Under `COc1ccc(C(=O)N2CCC(c3nc(-c4ccc(S(=O)(=O)N5CCCC5)cc4)no3)CC2)cc1` stands inactive: 97%.

The values above are taken from PubChem BioAssay AID463173 (ICCB-Longwood Screening Facility, Harvard Medical School, 2010).
